pIC50: −log10 of the molar value. Like-named read-outs stand apart in the source and are kept apart here. Some of these results come from one statement about several compounds together.
Target: T1, RORγ (UniProt P51449)
T1 construct: hRORg-LBD|aa259-518|NP_005051.2; hRORgt|aa1-497|NP_001001523 (RORg, t isoform, 497aa); mRORg-LBD|aa264-516|NP_035411
T1 sequence (P51449 1-518): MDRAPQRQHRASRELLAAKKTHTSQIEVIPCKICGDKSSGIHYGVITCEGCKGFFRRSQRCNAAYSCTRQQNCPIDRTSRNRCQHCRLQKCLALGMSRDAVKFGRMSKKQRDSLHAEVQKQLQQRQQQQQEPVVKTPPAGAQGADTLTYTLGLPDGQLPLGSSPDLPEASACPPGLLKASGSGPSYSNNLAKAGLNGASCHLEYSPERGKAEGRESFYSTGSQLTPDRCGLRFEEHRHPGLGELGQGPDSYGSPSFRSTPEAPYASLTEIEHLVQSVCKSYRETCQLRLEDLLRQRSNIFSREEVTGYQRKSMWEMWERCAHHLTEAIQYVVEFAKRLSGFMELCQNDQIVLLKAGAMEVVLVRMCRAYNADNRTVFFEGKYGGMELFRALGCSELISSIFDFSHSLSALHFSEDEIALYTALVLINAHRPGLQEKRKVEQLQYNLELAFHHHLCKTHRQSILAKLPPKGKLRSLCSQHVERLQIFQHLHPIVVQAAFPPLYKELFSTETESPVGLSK
Assay: RORγ Gal4 Reporter Gene Assay
Assay type: cell-based
Conditions: 293T cells

[1] = firefly (FF) luciferase, read-out: RORγ activity in the Gal4 reporter gene assay, firefly (IC50 FF), Group
[2] = renilla normalised (RENnorm) luciferase, read-out: RORγ activity in the Gal4 reporter gene assay, renilla normalised (IC50 RENnorm), Group

SMILES | pIC50 [1] | pIC50 [2]
Cc1ccc(-c2cc(S(N)(=O)=O)c(C)n2CC2CCCCC2)cc1OCc1ccccc1 [1/2] | 5.70 to 6.30 | < 5.70
Cc1c(S(N)(=O)=O)cc(-c2ccc(S(=O)(=O)NC(C)(C)C)cc2)n1CC1CCCCC1 [1/7] | 5.70 to 6.30 | 5.70 to 6.30
Cc1c(S(N)(=O)=O)cc(-c2cccc3ccccc23)n1CC1CCCCC1 [1/12] | < 5.70 | –
COc1ccc(OC(F)(F)F)cc1-c1cc(S(N)(=O)=O)c(C)n1CC1CCCCC1 [1/13] | < 5.70 | –
Cc1c(S(N)(=O)=O)cc(-c2cccc(N3CCCC3)c2)n1CC1CCCCC1 [1/14] | 5.70 to 6.30 | –
Cc1c(S(N)(=O)=O)cc(-c2cnn(-c3ccccc3)c2)n1CC1CCCCC1 [1/15] | < 5.70 | –
Cc1c(S(N)(=O)=O)cc(-c2cc(C(F)(F)F)c3ncccc3c2)n1CC1CCCCC1 [1/16] | 5.70 to 6.30 | –
Cc1c(S(N)(=O)=O)cc(-c2cccc(S(=O)(=O)N(C)C(C)(C)C)c2)n1CC1CCCCC1 [1/17] | < 5.70 | –
Cc1c(S(N)(=O)=O)cc(-c2cccc(C(=O)N(C)C3CCCCC3)c2)n1CC1CCCCC1 [1/18] | < 5.70 | –
Cc1c(S(N)(=O)=O)cc(-c2cn(S(=O)(=O)c3ccccc3)c3ccccc23)n1CC1CCCCC1 [1/19] | 5.70 to 6.30 | 5.70 to 6.30
Cc1c(S(N)(=O)=O)cc(-c2ccc(S(=O)(=O)N3CCOCC3)c(C(C)(C)C)c2)n1CC1CCCCC1 [1/28] | 5.70 to 6.30 | 5.70 to 6.30
Cc1c(S(N)(=O)=O)cc(-c2cc(C(C)(C)C)cc(C(C)(C)C)c2)n1CC1CCC(F)(F)CC1 [1/29] | 5.70 to 6.30 | 5.70 to 6.30
Cc1c(S(N)(=O)=O)cc(-c2c(C)n(S(=O)(=O)N3CCCCC3)c3ccccc23)n1CC1CCCCC1 [1/36] | 5.70 to 6.30 | 5.70 to 6.30
Cc1c(S(N)(=O)=O)cc(-c2cc(C(C)(C)C)cc(C(C)(C)C)c2)n1CC1CCCCCC1 [1/37] | > 6.30 | > 6.30
Cc1c(S(N)(=O)=O)cc(-c2cc(C(C)(C)C)cc(C(C)(C)C)c2)n1CC1CCCC1 [1/38] | 5.70 to 6.30 | > 6.30
Cc1c(S(N)(=O)=O)cc(-c2cc(C(C)(C)C)cc(C(C)(C)C)c2)n1CC1CCC1 [1/39] | 5.70 to 6.30 | 5.70 to 6.30
Cc1c(S(N)(=O)=O)cc(-c2cc(C(C)(C)C)cc(C(C)(C)O)c2)n1CC1CCCCC1 [1/41] | 5.70 to 6.30 | > 6.30
Cc1c(S(N)(=O)=O)cc(-c2cc(C(C)(C)C)cc(C3(O)COC3)c2)n1CC1CCCCC1 [1/42] | 5.70 to 6.30 | 5.70 to 6.30
Cc1c(S(=O)(=O)NCCO)cc(-c2cc(C(C)(C)C)cc(C(C)(C)C)c2)n1CC1CCCCC1 [2/2] | > 6.30 | –
Cc1c(S(=O)(=O)NC2CCC2)cc(-c2cc(C(C)(C)C)cc(C(C)(C)C)c2)n1CC1CCCCC1 [2/3] | > 6.30 | –
Cc1c(S(=O)(=O)NC2CCCC2)cc(-c2cc(C(C)(C)C)cc(C(C)(C)C)c2)n1CC1CCCCC1 [2/4] | 5.70 to 6.30 | 5.70 to 6.30

SMILES | pIC50 [1] | pIC50 [2]
Cc1c(S(=O)(=O)NCCN2CCOCC2)cc(-c2cc(C(C)(C)C)cc(C(C)(C)C)c2)n1CC1CCCCC1 [2/6] | > 6.30 | > 6.30
COC(=O)c1coc(CNS(=O)(=O)c2cc(-c3cc(C(C)(C)C)cc(C(C)(C)C)c3)n(CC3CCCCC3)c2C)n1 [5/4] | 5.70 to 6.30 | –
Cc1c(S(=O)(=O)NCC(C)(C)C(=O)O)cc(-c2cc(C(C)(C)C)cc(C3(C)CC3)c2)n1CC1CCCCC1 [11/1] | > 6.30 | > 6.30
Cc1n[nH]c2c(C(C)(C)C)cc(-c3cc(S(N)(=O)=O)c(C)n3CC3CCCCC3)cc12 [12/6] | 5.70 to 6.30 | 5.70 to 6.30
Cc1c(S(N)(=O)=O)cc(-c2cc3c(c(C(C)(C)C)c2)OCC(=O)N3C)n1CC1CCCCC1 [12/9] | 5.70 to 6.30 | 5.70 to 6.30
Cc1c(S(N)(=O)=O)cc(-c2cc(OCC(F)(F)F)nc(C(C)(C)C)c2)n1CC1CCCCC1 [12/12] | 5.70 to 6.30 | 5.70 to 6.30
Cc1c(S(N)(=O)=O)cc(-c2cc(OCC(C)(C)C)nc(C(F)(F)F)c2)n1CC1CCCCC1 [12/13] | – | 5.70 to 6.30
Cc1c(S(N)(=O)=O)cc(-c2cc(C(C)C)c3c(c2)C(C)(C)NS3(=O)=O)n1CC1CCCCC1 [12/17] | – | 5.70 to 6.30
Cc1c(S(N)(=O)=O)cc(-c2ccc3c(c2)C(C)(C)CN(C(C)C)S3(=O)=O)n1CC1CCCCC1 [12/18] | – | 5.70 to 6.30
Cc1c(S(N)(=O)=O)cc(-c2ccc3c(c2)C(C)(C)CN(CC(C)(C)C)S3(=O)=O)n1CC1CCCCC1 [12/19] | – | > 6.30
Cc1c(S(N)(=O)=O)cc(-c2ccc(S(=O)(=O)N(CC(F)(F)F)C(C)(C)C)c(C(C)(C)C)c2)n1CC1CCCCC1 [12/20] | – | > 6.30
Cc1c(S(N)(=O)=O)cc(-c2ccc(S(=O)(=O)N3CCCC(C(F)(F)F)C3)c(C(C)(C)C)c2)n1CC1CCCCC1 (centres unmarked) [12/21] | – | 5.70 to 6.30
Cc1c(S(N)(=O)=O)cc(-c2ccc(S(=O)(=O)NCC(F)(F)F)c(C(C)(C)C)c2)n1CC1CCCCC1 [12/22] | – | > 6.30
Cc1c(S(N)(=O)=O)cc(-c2cc(C(C)(C)C)c(Br)c(C(C)(C)C)c2)n1CC1CCCCC1 [12/23] | 5.70 to 6.30 | 5.70 to 6.30
COC(=O)c1c(C(C)(C)C)cc(-c2cc(S(N)(=O)=O)c(C)n2CC2CCCCC2)cc1C(C)(C)C [12/24] | > 6.30 | –
CCc1c(S(N)(=O)=O)cc(-c2cc(C(C)(C)C)cc(C(C)(C)C)c2)n1CC1CCCCC1 [12/25] | 5.70 to 6.30 | –
Cc1c(S(N)(=O)=O)cc(-c2cc(C(C)(C)C)cc(C(C)(C)CF)c2)n1CC1CCCCC1 [12/26] | > 6.30 | –
CC(=O)c1cc(-c2cc(S(N)(=O)=O)c(C)n2CC2CCCCC2)cc(C(C)(C)C)c1 [12/27] | 5.70 to 6.30 | 5.70 to 6.30
Cc1c(S(N)(=O)=O)cc(-c2cc3c(c(C(C)(C)C)c2)OCCC3=O)n1CC1CCCCC1 [12/28] | 5.70 to 6.30 | 5.70 to 6.30
Cc1c(S(N)(=O)=O)cc(-c2ccc(S(=O)(=O)NC(C)(C)C)c(C(F)F)c2)n1CC1CCCCC1 [12/29] | > 6.30 | > 6.30
Cc1c(S(N)(=O)=O)cc(-c2ccc(S(=O)(=O)NC(C)(C)CCO)c(C(F)(F)F)c2)n1CC1CCCCC1 [12/31] | 5.70 to 6.30 | 5.70 to 6.30

SMILES | pIC50 [1] | pIC50 [2]
COCC(C)(C)NS(=O)(=O)c1ccc(-c2cc(S(N)(=O)=O)c(C)n2CC2CCCCC2)cc1C(F)(F)F [12/32] | 5.70 to 6.30 | 5.70 to 6.30
Cc1c(S(N)(=O)=O)cc(-c2cc(C(C)(C)C)cc(C3(C)CC3)c2)n1CC1CCCCC1 [12/33] | > 6.30 | > 6.30
Cc1c(S(N)(=O)=O)cc(-c2ccc(N3CCOCC3)c(C(C)(C)C)c2)n1CC1CCCCC1 [12/34] | 5.70 to 6.30 | 5.70 to 6.30
Cc1c(S(N)(=O)=O)cc(-c2ccc(N3CCCCC3)c(C(C)(C)C)c2)n1CC1CCCCC1 [12/36] | 5.70 to 6.30 | 5.70 to 6.30
Cc1c(S(N)(=O)=O)cc(-c2cc(C(F)(F)F)cc(C3(C)CC3)c2)n1CC1CCCCC1 [12/37] | – | > 6.30
Cc1c(S(N)(=O)=O)cc(-c2cc(C(C)(C)C)cc(C(F)(F)F)c2)n1CC1CCCCC1 [12/38] | – | > 6.30
Cc1c(S(N)(=O)=O)cc(-c2cc(C(C)(C)C)c(F)c(C(C)(C)C)c2)n1CC1CCCCC1 [12/39] | – | 5.70 to 6.30
Cc1c(S(N)(=O)=O)cc(-c2cc(C(=O)N(C)C)cc(C(C)(C)C)c2)n1CC1CCCCC1 [13/2] | 5.70 to 6.30 | 5.70 to 6.30
CCNC(=O)c1cc(-c2cc(S(N)(=O)=O)c(C)n2CC2CCCCC2)cc(C(C)(C)C)c1 [13/5] | 5.70 to 6.30 | 5.70 to 6.30
Cc1c(S(N)(=O)=O)cc(-c2cc(C(=O)NC3CC3)cc(C(C)(C)C)c2)n1CC1CCCCC1 [13/10] | 5.70 to 6.30 | 5.70 to 6.30
COc1cc(-c2cc(S(N)(=O)=O)c(C)n2CC2CCCCC2)cc(C(C)(C)C)c1 [16/1] | 5.70 to 6.30 | 5.70 to 6.30
Cc1c(S(N)(=O)=O)cc(-c2cc(OC(C)C)cc(C(C)(C)C)c2)n1CC1CCCCC1 [16/2] | > 6.30 | > 6.30
Cc1c(S(N)(=O)=O)cc(-c2cc(OCC3CC3)cc(C(C)(C)C)c2)n1CC1CCCCC1 [16/3] | 5.70 to 6.30 | 5.70 to 6.30
Cc1c(S(N)(=O)=O)cc(-c2cc(OCCO)cc(C(C)(C)C)c2)n1CC1CCCCC1 [16/4] | 5.70 to 6.30 | < 5.70
Cc1c(S(N)(=O)=O)cc(-c2cc(OCCN3CCOCC3)cc(C(C)(C)C)c2)n1CC1CCCCC1 [16/6] | < 5.70 | < 5.70
Cc1c(S(N)(=O)=O)cc(-c2cc(C(C)(C)C)c(OCC(C)(C)O)c(C(C)(C)C)c2)n1CC1CCCCC1 [16/7] | 5.70 to 6.30 | 5.70 to 6.30
CNC(=O)COc1c(C(C)(C)C)cc(-c2cc(S(N)(=O)=O)c(C)n2CC2CCCCC2)cc1C(C)(C)C [16/10] | – | 5.70 to 6.30
COCCOc1c(C(C)(C)C)cc(-c2cc(S(N)(=O)=O)c(C)n2CC2CCCCC2)cc1C(C)(C)C [16/11] | – | 5.70 to 6.30
COc1cc(-c2cc(S(N)(=O)=O)c(C)n2CC2CCCCC2)cc(C(C)(C)C)n1 [17/1] | 5.70 to 6.30 | 5.70 to 6.30
CCOc1cc(-c2cc(S(N)(=O)=O)c(C)n2CC2CCCCC2)cc(C(C)(C)C)n1 [17/2] | > 6.30 | > 6.30
Cc1c(S(N)(=O)=O)cc(-c2cc(OCCCN3CCOCC3)nc(C(C)(C)C)c2)n1CC1CCCCC1 [17/3] | 5.70 to 6.30 | 5.70 to 6.30
